Experimental data as given in PubChem BioAssay AID485294 (National Center for Advancing Translational Sciences (NCATS), 2010).
Out of some 370,000 compounds screened, about 150 (0.041%) were called active. Inconclusive results, whose numbers are uncertain, are shown with a selection of clear calls. Calls follow the shape of the dose curve; as a rule, active = well fitted inhibition curve with a large enough effect; inconclusive = small, poorly fitted or top-dose-only effect; inactive = flat fitted curve, though single readings scatter. Potencies of inconclusive entries are left out as doubtful fits.

Target: Beta-lactamase (Escherichia coli (strain K12)) (UniProt P00811)
Assay: qHTS Inhibitors of AmpC Beta-Lactamase (assay with detergent); also: nearly all actives have a fitted effect of over 25% in size;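 as to activity change, negative = inhibition: 0% = no-compound wells and -100% = no-enzyme wells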
Conditions: AmpC hydrolysis of nitrocefin, absorbance 480 nm, 0.01% Triton; activity change, negative = inhibition: at 114 µM (top of the series)
Outline: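 20 mM phosphate pH 7.0 + 0.01% (detergent screen) or 0.0001% Triton X-100; 5.3 nM AmpC reagent; cpd preinc 15 min RT; nitrocefin (800 uM stock) to start; A480 q20 s × 4 min; Activity was normalised to no-enzyme and no-compound control wells.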
Potency is read from the fitted curve at half-maximal effect; tags tell the direction and shape of the fitted curve.

UniProt P00811, sequence (P00811 whole entry, looked up): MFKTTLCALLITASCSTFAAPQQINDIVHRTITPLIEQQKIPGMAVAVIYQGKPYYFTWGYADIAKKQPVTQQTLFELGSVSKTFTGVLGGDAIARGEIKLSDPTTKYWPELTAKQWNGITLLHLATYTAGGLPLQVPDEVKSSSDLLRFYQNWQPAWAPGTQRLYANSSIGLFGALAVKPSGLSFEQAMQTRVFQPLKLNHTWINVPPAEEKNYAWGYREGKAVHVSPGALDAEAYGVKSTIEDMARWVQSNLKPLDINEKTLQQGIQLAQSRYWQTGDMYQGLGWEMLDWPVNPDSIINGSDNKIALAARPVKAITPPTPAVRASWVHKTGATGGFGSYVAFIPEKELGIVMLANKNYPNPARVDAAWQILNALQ

| Structure (SMILES) | Potency | activity change, negative = inhibition |
| --- | --- | --- |
| CSC1=NCCN1C(=O)c1ccc(S(=O)(=O)N2CCCCC2)cc1 | inconclusive [inhibitor, full curve] |  |
| CCOc1ccc(N2CC(C(=O)OCC(=O)c3ccc(OC)cc3)CC2=O)cc1 (configuration not stated) | inconclusive [inhibitor, full curve] |  |
| COc1ccc(NC(=O)Nc2ccc(OCC(=O)N3CCOCC3)cc2)cc1OC | inconclusive [inhibitor, full curve] |  |
| COc1cc(CN(C(=O)c2cccc(C)c2)c2ccccn2)cc(OC)c1OC |  | inactive: 18.2% |
| Cc1cc(=O)[nH]c2nnc(-c3ccc(Cl)cc3)n12 | inconclusive [inhibitor, partial curve, poor fit] |  |
| O=C(COC(=O)c1cnc(Cl)c(Cl)c1)NCc1cccs1 |  | inactive: -6.4% |
| COc1ccc(Br)cc1/C=N/N1C(=O)CSC1=S | inconclusive [inhibitor, partial curve] |  |
| COC(=O)c1sc(N)c(C(=O)OC)c1CSc1nc2sc3c(c2c(=O)n1C)CCC3 | inconclusive [inhibitor, single point] |  |
| COc1ccc(N2CCN(S(=O)(=O)c3cccc(C(F)(F)F)c3)CC2)cc1 | inconclusive [inhibitor, full curve] |  |
| Cc1cc(C)cc(NC(=O)N2CCc3ccccc3C2)c1 | inconclusive [inhibitor, full curve] |  |
| COc1ccc(NC(=O)CSc2nc3[nH]ncc3c(=O)n2-c2ccccc2C)cc1OC | inconclusive [inhibitor, single point] |  |
| Cc1cc(NC(=O)CSC2=NS(=O)(=O)c3ccccc3N2)no1 | inconclusive [inhibitor, single point] |  |
| CC(C)(C)NC(=O)/C(=C\c1ccc(Br)cc1)NC(=O)c1cccs1 | inconclusive [inhibitor, single point] |  |
| S=C(Nc1ccc(Cl)cc1)Nc1cccc2cnccc12 |  | inactive: -14.2% |
| Cc1ccc(OCC(=O)Nc2ccc(S(=O)(=O)N3CCOCC3)cc2)c(Br)c1 |  | inactive: -8.87% |
| Cc1ccc(-n2c3c(cc(C(=O)NC4CCSC4=O)c2=O)C(=O)CCC3)cc1 (configuration not stated) | inconclusive [inhibitor, full curve, poor fit] |  |
| Cc1ccc(C)c(N(CC(=O)N2CCCC2)S(C)(=O)=O)c1 | inconclusive [inhibitor, partial curve] |  |
| CC(C)(C)NC(=O)c1cc2c(ccc3ccccc32)oc1=O | inconclusive [inhibitor, full curve, poor fit] |  |
| COc1ccccc1N/C(=N/S(=O)(=O)c1ccc(C)cc1)c1ccccc1 |  | inactive: -0.315% |
| O=C(c1ccccc1)c1ccc2nc(N3CCN(C(=O)c4ccco4)CC3)c3nncn3c2c1 |  | inactive: -8.08% |
| Cc1csc(=Nc2cccnc2)n1CC1CCCCC1 | inconclusive [inhibitor, full curve, poor fit] |  |
| CCN1C(=O)NC2C1N(S(C)(=O)=O)CCN2S(C)(=O)=O (configuration not stated) | inconclusive [inhibitor, full curve] |  |
| COc1ccc(/C(O)=C2/C(=O)C(=O)N(c3ccccn3)C2c2ccc(F)cc2)cc1 (configuration not stated) | inconclusive [inhibitor, single point] |  |

| Structure (SMILES) | Potency | activity change, negative = inhibition |
| --- | --- | --- |
| CCN1C(=O)/C(=C/c2ccc3c(c2)CCN3CCCCl)C(=O)NC1=S |  | inactive: -2.09% |
| Cc1oc(C)c(C(N)=O)c1C(N)=O | inconclusive [inhibitor, full curve, poor fit] |  |
| Cc1ccc(NC(=S)N2CCC(NC(=O)c3ccco3)CC2)cc1C | inconclusive [inhibitor, partial curve, poor fit] |  |
| COc1ccc(-c2cc(C(C)=O)c(C)n2CCC(=O)Nc2ccc(C(F)(F)F)cc2)cc1 |  | inactive: -4.22% |
| CNC(=S)SCCOc1ccccc1C | inconclusive [inhibitor, partial curve, poor fit] |  |
| Cc1c(Cl)cccc1NC(=O)CCN1CCN(CCO)CC1 | inconclusive [inhibitor, single point] |  |
| O=C(NN1C(=O)/C(=C/C=C/c2ccco2)SC1=S)c1ccncc1 | inconclusive [inhibitor, partial curve] |  |
| COc1ccc(-c2ccc(=O)n(Cc3cccc([N+](=O)[O-])c3)n2)cc1 |  | inactive: -0.647% |
| S=c1[nH]nc(CCc2ccc(Cl)cc2)o1 | inconclusive [inhibitor, single point] |  |
| COCCn1c(SCC(=O)Nc2cccc(C)n2)nnc1-c1ccco1 | inconclusive [inhibitor, single point] |  |
| CCOC(=O)c1cn2nc(-c3ccc(OC)cc3)cc2nc1C1CCN(C(=O)OC(C)(C)C)CC1 | inconclusive [inhibitor, single point] |  |
| CC(C)Oc1ccc(/C(O)=C2/C(=O)C(=O)N(CCCn3ccnc3)C2c2cccnc2)cc1 (configuration not stated) | inconclusive [inhibitor, partial curve] |  |
| COc1ccc(S(=O)(=O)N2CCN(CC(=O)Nc3cccc(OC)c3)CC2)cc1 | inconclusive [inhibitor, full curve, poor fit] |  |
| CCOC(=O)c1ccc(NC2c3ccccc3C(=O)N2c2ccc(C)cn2)cc1 (configuration not stated) | inconclusive [inhibitor, full curve] |  |
| Cc1ccc(C(C)C)c(OCCN2CCc3ccccc3C2)c1 | inconclusive [inhibitor, full curve, poor fit] |  |
| CCn1nc(C)c(CCN(C)C(=O)Nc2cc(C)cc(C)c2)c1C |  | inactive: 8.86% |
| CC(=O)c1c(C(C)=O)c(C)n(Cc2ccc3c(c2)OCO3)c1C | inconclusive [inhibitor, full curve, poor fit] |  |
| CCN(CC)c1ccc(NC(=O)c2ccco2)cc1 | inconclusive [inhibitor, partial curve, poor fit] |  |
| O=C(N/N=C/c1c(-c2ccccc2)[nH]c2ccccc12)c1cccnc1 | inconclusive [inhibitor, full curve, poor fit] |  |
| CCCCn1nnnc1SCC(=O)Nc1ccc2c(c1)OCO2 | inconclusive [inhibitor, full curve, poor fit] |  |
| CCc1c(O)nc(SCC(=O)N2CCc3cc(OC)c(OC)cc3[C@@H]2C)[nH]c1=O | inconclusive [inhibitor, full curve, poor fit] |  |
| COc1cccc(-c2nn(C)c3sc(C(=O)Nc4ccc5c(c4)OCCO5)cc23)c1 |  | inactive: -3.68% |
| O=C(CCCn1c(=S)[nH]c2cc3c(cc2c1=O)OCO3)N1CCN(c2ccccc2)CC1 | inconclusive [inhibitor, full curve, poor fit] |  |

| Structure (SMILES) | Potency | activity change, negative = inhibition |
| --- | --- | --- |
| CC1Oc2ccccc2N(Cc2cccc(F)c2)C1=O (configuration not stated) |  | inactive: -5.14% |
| CCc1ccc2nc(SCC(=O)Nc3ccccc3N3CCOCC3)c(C#N)cc2c1 | inconclusive [inhibitor, full curve] |  |
| O=C(Nc1ccc(N2CCCC2)cc1)c1cc([N+](=O)[O-])ccc1N1CCOCC1 | inconclusive [inhibitor, full curve, poor fit] |  |
| O=C(N/C=C/c1ccccc1)c1ccccc1 | inconclusive [inhibitor, full curve, poor fit] |  |
| COC(=O)C(NC(=O)CNS(=O)(=O)c1ccc(Br)cc1)c1ccccc1 (configuration not stated) | inconclusive [inhibitor, partial curve] |  |
| O=S(=O)(NCC1CCCO1)c1ccc2ccccc2c1 (configuration not stated) | inconclusive [inhibitor, full curve] |  |
| O=C(CSc1nnc(-c2ccco2)o1)NCC(=O)c1ccccc1 | inconclusive [inhibitor, full curve, poor fit] |  |
| CC1CCCN(C(=O)C2CCN(CC3CC=CCC3)CC2)C1 (configuration not stated) | inconclusive [inhibitor, partial curve, poor fit] |  |
| CCOC(=O)COc1ccc(Br)cc1/C=C1\SC(N)=NC1=O |  | inactive: -8.8% |
| C=C[C@]1(C)C[C@@H](OC(=O)CSCCN(CC)CC)[C@]2(C)C(C)CC[C@]3(CCC(=O)[C@H]32)[C@@H](C)[C@@H]1O (some centres not stated) | inconclusive [inhibitor, full curve, poor fit] |  |
| COc1cc(/C=C/c2nc(C#N)c(NCCc3ccccc3)o2)cc(OC)c1OC |  | inactive: 17.3% |
| O=C(CCNC(=O)c1ccc(Br)o1)NCc1ccccc1Cl | inconclusive [inhibitor, full curve] |  |
| Clc1ccc(OCc2nc3ccccc3n2Cc2ccccc2)c(Cl)c1 |  | inactive: -6.43% |
| Cc1ccc(C)c(NC(=S)c2ccccn2)c1 |  | inactive: 4.96% |
| Cc1c(S(=O)(=O)Nc2cccc(Cl)c2)c(=O)n(C)c(=O)n1C | inconclusive [inhibitor, full curve, poor fit] |  |
| CCCC#Cc1ccc2c(c1)COc1c3ccccc3nn1-2 | inconclusive [inhibitor, partial curve, poor fit] |  |
| CCN(CC(=O)N1CCCC1)S(=O)(=O)c1ccc2ccccc2c1 | inconclusive [inhibitor, partial curve, poor fit] |  |
| CCc1ccc(-c2nn(CC(=O)Nc3ccccc3C)c3c2cnc2ccc(C)cc23)cc1 |  | inactive: 0.734% |
| O=C(OCc1nnc(-c2ccccc2)o1)c1ccc2c(c1)OCCO2 |  | inactive: -15.2% |
| Cc1nc(NC2=NCN(Cc3ccco3)CN2)nc2ccccc12 |  | inactive: 4.56% |
| O=C(C1CCC(CNS(=O)(=O)c2cccs2)CC1)N1CCCCC1 (configuration not stated) | inconclusive [inhibitor, single point] |  |
